Measured values as given in patent US20240109914A1, “IMIDAZOTHIAZOLE COMPOUNDS AND ANALOGS THEREOF AND METHODS FOR TREATING NEMATODE INFECTIONS IN PLANTS” (The Governing Council of The University of Toronto, priority 2021, published 2024).
At least one read-out could not be matched to a standard name with certainty. Some of these results come from one statement about several compounds together.

Tests used:
M. chitwoodi J2 larvae = experiment: Meloidogyne chitwoodi in vitro larval mobility assay; type: in vivo; details: 45 μM, 2 days, average of three replicates
Method: M. chitwoodi race 1 (the strain commonly found in the pacific northwest of the United States) was used for all experiments, and was maintained on tomato plants (Solanum lycopersicum ‘Rutgers’) as previously described^47. The microwell dose-response experiments were carried out similarly to previously described protocols^44,46. […] The chemicals were tested at 45 μM, and the final concentration of DMSO in each well was 0.5% (v/v). The wells were covered with a plastic adhesive strip, and the lids of the plates were sealed with parafilm. The plates were incubated at 25° C. for 2 days. The percent of worms that were immobile (% immobile) was quantified by counting the number of immobile worms after 2 days of incubation, dividing the number of immobile worms by the total number of worms in the well, and then multiplying by 100. […] The average % immobile value was calculated across the three replicates.

M. incognita J2 larvae = experiment: Meloidogyne incognita in vitro larval mobility assay; type: in vivo; details: 45 μM, 4 days, average of the two replicates
Method: M. incognita (Kofoid & White) Chitwood Race 1 (originally isolated in Maryland) was used for all experiments, and was maintained on pepper (Capsicum annuum L.) cv. PA-136 in a greenhouse as previously described^44. Infective J2 juveniles were collected as described in ref. 45. The microwell dose-response experiments were carried out similarly to previously described protocols^44,46. In brief, 50 μL of deionized water was added to the wells of 96-well polystyrene plates and 0.5 μL of test compound (or DMSO alone) was added to each well. Approximately 35 J2s were then added to each well in 49.5 μL of deionized water. The chemicals were tested at 45 μM, and the final concentration of DMSO in each well was 0.5% (v/v). DMSO alone was added to 3 separate wells. The plates were covered with plastic adhesive strips, and the lids of the plates were sealed with parafilm. The plates were incubated at 25° C. without shaking for 4 days. The percent of worms that were immobile (% immobile) was quantified by counting the number of immobile worms after 4 days of incubation, dividing the number of immobile worms by the total number of worms in the well, and then multiplying by 100. Two replicates were performed for each treatment. The z-score for each treatment was calculated using the mean and standard deviation of the untreated DMSO control wells. The average % immobile value was calculated across the two replicates. A test compound was considered most promising if the z-score was greater than 1.645 in both replicates.

Cc1ccc(-c2cn3ccsc3n2)cc1 [I-2]
% Immobile (M. chitwoodi J2 larvae): 95.8% | % Immobile (M. chitwoodi J2 larvae; listed as 1-2): greater than 75%

CCc1ccc(-c2cn3ccsc3n2)cc1 [I-7]
% Immobile (M. chitwoodi J2 larvae): 78.8%

CCc1ccc(-c2cn3cc(C)sc3n2)cc1 [I-10]
% Immobile (M. chitwoodi J2 larvae): 100% | % Immobile (M. chitwoodi J2 larvae; listed as 1-10): greater than 75%

Fc1cccc(-c2cn3ccsc3n2)c1 [I-14]
Average % Immobile (M. incognita J2 larvae): 90.22%

Cc1c(-c2ccc(Cl)cc2)nc2sccn12 [I-22]
% Immobile (M. chitwoodi J2 larvae): 75.3%

Clc1cccc(-c2cn3ccsc3n2)c1 [I-23]
Average % Immobile (M. incognita J2 larvae): 89.72%

Brc1cccc(-c2cn3ccsc3n2)c1 [I-34]
Average % Immobile (M. incognita J2 larvae): 91.92%

Clc1ccc(-c2cn3ccsc3n2)nc1 [I-46]
Average % Immobile (M. incognita J2 larvae): 75.16%

Clc1ccc(-c2cn3ccoc3n2)cc1 [I-47, 6-(4-chlorophenyl)imidazo[2,1-b]oxazole]
Average % Immobile (M. incognita J2 larvae): 95.74% | Average % Immobile (M. incognita J2 larvae; listed as 1-47): at least 75%

Clc1ccc(-c2cn3c(n2)SCC3)cc1 [I-49]
Average % Immobile (M. incognita J2 larvae): 100.00% | Average % Immobile (M. incognita J2 larvae; listed as 1-49): at least 75%

FC(F)Oc1ccc(-c2cn3ccsc3n2)cc1 [I-63]
Average % Immobile (M. incognita J2 larvae): 100.00% | Average % Immobile (M. incognita J2 larvae; listed as 1-63): at least 75%

Clc1ccc(-c2cn3ccsc3n2)s1 [I-84]
Average % Immobile (M. incognita J2 larvae): 94.53%

Fc1ccccc1-c1cn2ccsc2n1 [I-89]
Average % Immobile (M. incognita J2 larvae): 76.12%

O=Cc1c(-c2ccc(Cl)cc2)nc2sccn12 [I-93]
Average % Immobile (M. incognita J2 larvae): 88.46%

Fc1ccc(-c2cn3nc(Br)sc3n2)cc1 [I-113]
Average % Immobile (M. incognita J2 larvae): 97.22% | Average % Immobile (M. incognita J2 larvae; listed as 1-113): at least 75%

O=Cc1c(-c2ccccc2)nc2sccn12 [I-122]
Average % Immobile (M. incognita J2 larvae): 86.85%

Nc1c(-c2ccccc2)nc2sccn12 [I-128]
Average % Immobile (M. incognita J2 larvae): 83.24%

Cc1ccc(-c2nc3sccn3c2C=O)cc1 [I-152]
Average % Immobile (M. incognita J2 larvae): 95.65% | Average % Immobile (M. incognita J2 larvae; listed as 1-152): at least 75%

CCOc1ccc(-c2nc3sccn3c2C=O)cc1 [I-154]
Average % Immobile (M. incognita J2 larvae): 86.79%

O=Cc1c(-c2ccc(F)cc2)nc2sccn12 [I-157]
Average % Immobile (M. incognita J2 larvae): 96.02% | Average % Immobile (M. incognita J2 larvae; listed as 1-157): at least 75%

Brc1nn2cc(-c3ccccc3)nc2s1 [I-159]
Average % Immobile (M. incognita J2 larvae): 98.89% | Average % Immobile (M. incognita J2 larvae; listed as 1-159): at least 75%
